This note sets out measurements from the supplement of paper PMC12217912.

Some of the results follow. The full chains were built here from the parent and the listed change. Inactive controls read about 0.05.

B1: TEV protease; numbered along this chain (parent)
chain: MGESLFKGPRDYNPISSSICHLTNESDGHTTSLYGIGFGPFIITNKHLFRRNNGTLVVQSLHGVFKVKDTTTLQQHLVDGRDMIIIRMPKDFPPFPQKLKFREPQREERICLVTTNFQTKSMSSMVSDTSCTFPSGDGIFWKHWIQTKDGQCGSPLVSTRDGFIVGIHSASNFTNTNNYFTSVPKNFMELLTNQEAQQWVSGWRLNADSVLWGGHKVFMVKPEEPFQPVKEATQL
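Note: Bxb1 expression induced with 0.2% (w/v) L-rhamnose at OD600 near 0.5, cultures sampled hourly, flipped fraction per protease–substrate barcode pair counted by paired-end Illumina sequencing.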

The variants in the assay derive from B1. The assay can be described thus: raw area under fraction-flipped curve 0-4 h after induction (AUC4h, not background-subtracted), DNA-recorder readout of cleavage of the substrate (dimensionless); higher = more cleavage of the substrate by the protease variant. The following applies: temperature: 34 °C; time window: 0-4 h after rhamnose induction.
In the case of N193S, the “area with substrate ENLFFQS” value was found to be 0.0906, the “area with substrate ENLHFQS” value was 0.078, the “area with substrate ENLKFQS” value worked out at 0.0767 and the “area with substrate ENLSFQS” value came out at 0.0694.
C152Q: the “area with substrate ENLFFQS” value was 0.0643, the “area with substrate ENLHFQS” value worked out at 0.0636, the “area with substrate ENLKFQS” value is 0.0649 and the “area with substrate ENLNFQS” value was 0.0514. Moreover, the “area with substrate ENLQFQS” value stood at 0.0601.
For C152H, the “area with substrate ENLFFQS” value was 0.0603, the “area with substrate ENLPFQS” value stood at 0.0445, the “area with substrate ENLVFQS” value was determined as 0.0701 and the “area with substrate ENLWFQS” value was 0.0586.
With F95M, the “area with substrate ENLQFQS” value stood at 0.0705.
G8I: the “area with substrate ENLGFQS” value is 0.0644, the “area with substrate ENLMFQS” value came out at 0.0736 and the “area with substrate ENLWFQS” value was determined as 0.0631.
For T119I, the “area with substrate ENLFFQS” value amounted to 0.0791, the “area with substrate ENLHFQS” value stood at 0.0739, the “area with substrate ENLKFQS” value is 0.0756 and the “area with substrate ENLPFQS” value was 0.0689. Further, the “area with substrate ENLQFQS” value came out at 0.0723, the “area with substrate ENLRFQS” value came to 0.0574, the “area with substrate ENLSFQS” value amounted to 0.0729 and the “area with substrate ENLVFQS” value came out at 0.0983.
As for G153R, the “area with substrate ENLKFQS” value was 0.044.
S209I: the “area with substrate ENLGFQS” value was 0.0744, the “area with substrate ENLIFQS” value stood at 0.104, the “area with substrate ENLRFQS” value came out at 0.0598 and the “area with substrate ENLSFQS” value was 0.0498. The “area with substrate ENLVFQS” value turned out to be 0.0612.
As for D149R, the “area with substrate ENLLFQS” value worked out at 0.069, the “area with substrate ENLNFQS” value amounted to 0.0617 and the “area with substrate ENLSFQS” value is 0.0516.
As to G202K, the “area with substrate ENLKFQS” value turned out to be 0.0586 and the “area with substrate ENLNFQS” value was determined as 0.0646.
Turning to L205V, the “area with substrate ENLPFQS” value worked out at 0.0571, the “area with substrate ENLSFQS” value is 0.0549 and the “area with substrate ENLVFQS” value worked out at 0.0692.
Regarding V200K, the “area with substrate ENLFFQS” value came out at 0.0682, the “area with substrate ENLNFQS” value came out at 0.0573, the “area with substrate ENLQFQS” value was determined as 0.0568 and the “area with substrate ENLWFQS” value amounted to 0.0574.
Consider F218R, for which the “area with substrate ENLFFQS” value is 0.0473, the “area with substrate ENLGFQS” value was found to be 0.0638, the “area with substrate ENLHFQS” value turned out to be 0.0649 and the “area with substrate ENLKFQS” value came out at 0.0766. Also, the “area with substrate ENLLFQS” value was determined as 0.0475, the “area with substrate ENLMFQS” value is 0.0675, the “area with substrate ENLNFQS” value stood at 0.0716 and the “area with substrate ENLPFQS” value turned out to be 0.0603. In addition, the “area with substrate ENLTFQS” value was found to be 0.0532, the “area with substrate ENLVFQS” value was found to be 0.0859 and the “area with substrate ENLWFQS” value is 0.0604.
